Results: article PMC4336329 (PLoS ONE, 2015)
The campaign covered roughly 310,000 compounds. About 2,200 (0.71%) showed an effect of 50% or more. Effects have a minus sign here. Some of the results follow.

What follows are compounds tested against human ether-à-go-go-related gene (hERG) potassium channel (human, UniProt Q12809) (assay: primary screen, population patch clamp on CHO cells stably expressing hERG).
Sequence of human ether-à-go-go-related gene (hERG) potassium channel (Q12809 whole entry, looked up): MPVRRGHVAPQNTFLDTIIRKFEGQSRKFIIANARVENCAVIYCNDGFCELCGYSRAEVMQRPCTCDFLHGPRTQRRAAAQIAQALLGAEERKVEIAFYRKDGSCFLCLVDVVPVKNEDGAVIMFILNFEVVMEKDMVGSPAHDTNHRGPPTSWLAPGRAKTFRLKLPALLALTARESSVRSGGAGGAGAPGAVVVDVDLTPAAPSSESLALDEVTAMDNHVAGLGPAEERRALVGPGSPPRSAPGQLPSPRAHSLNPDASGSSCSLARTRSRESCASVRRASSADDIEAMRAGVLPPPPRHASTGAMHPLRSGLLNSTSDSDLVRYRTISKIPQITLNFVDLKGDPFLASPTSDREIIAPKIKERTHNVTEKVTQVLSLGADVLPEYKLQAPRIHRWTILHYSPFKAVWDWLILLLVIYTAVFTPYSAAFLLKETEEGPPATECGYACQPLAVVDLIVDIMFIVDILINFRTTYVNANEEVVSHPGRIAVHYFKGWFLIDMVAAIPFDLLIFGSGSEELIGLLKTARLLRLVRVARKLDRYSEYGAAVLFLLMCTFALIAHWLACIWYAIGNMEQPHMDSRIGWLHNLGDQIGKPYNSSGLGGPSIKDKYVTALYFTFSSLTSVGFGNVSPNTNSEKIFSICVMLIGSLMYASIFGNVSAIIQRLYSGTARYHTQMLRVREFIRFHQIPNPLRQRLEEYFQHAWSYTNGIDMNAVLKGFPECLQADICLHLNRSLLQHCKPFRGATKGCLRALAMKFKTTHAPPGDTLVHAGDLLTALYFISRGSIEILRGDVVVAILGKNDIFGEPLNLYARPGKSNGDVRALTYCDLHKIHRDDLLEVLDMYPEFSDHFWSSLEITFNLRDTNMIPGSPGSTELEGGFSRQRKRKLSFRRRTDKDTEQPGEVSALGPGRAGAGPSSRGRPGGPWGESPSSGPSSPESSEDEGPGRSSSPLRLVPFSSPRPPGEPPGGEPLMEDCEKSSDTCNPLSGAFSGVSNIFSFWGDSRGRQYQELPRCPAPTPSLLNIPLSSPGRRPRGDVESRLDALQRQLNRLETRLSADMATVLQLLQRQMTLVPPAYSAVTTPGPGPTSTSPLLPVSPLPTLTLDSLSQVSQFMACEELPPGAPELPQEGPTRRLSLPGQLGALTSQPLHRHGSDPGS

Structure (SMILES)	hERG current change (%, negative = inhibition) at 1uM
CCN(CC)CCCNC(=O)C(C)n1nc(C)c2sc3ccccc3c2c1=O (centres unmarked)	7.68%
CC(=O)Nc1nc2c(s1)C(=O)NCCC2	2.73%
Cc1ccc(C(=O)ON=C2CCN(S(=O)(=O)c3ccccc3)CC2)cc1	15.1%
Cc1ccc(C)c(Cn2nnc3c(=O)[nH]c(C4CCCN(C(=O)c5ccco5)C4)nc32)c1 (centres unmarked)	2.49%
Nc1nc(SCC(=O)Nc2ccc(C(F)(F)F)cc2)[nH]c(=O)c1NC(=O)c1ccc(F)c(F)c1	12.4%
Cc1ccc(NC(=O)c2ccccc2O)cc1	1.39%
O=C(CC(=O)c1cc(Cl)ccc1O)c1ccccc1	11.5%
COc1ccc(S(=O)(=O)N2CCOCC2)cc1NC(=O)CSc1nnc(C2CC2)n1N	10.6%
O=C(COC(=O)c1ccc(S(=O)(=O)N2CCCCC2)cc1)NCc1ccco1	13.9%
CC/C(=N\Nc1ccccc1)c1c(O)n(-c2ccc(OC)cc2)c(=O)[nH]c1=O	13%
Cc1ccc2nc(C3CCCN3Cc3nc(CCC(C)C)no3)[nH]c2c1 (centres unmarked)	15.8%
O=C(NN1CCCCC1)c1cccc(COc2ccc(Cl)cc2)c1	7.77%
CSc1ncc(Cl)c(C(=O)Nc2cccc(C)c2)n1	9.58%
CCSc1c(C(=O)NC)ccc2c1C(=O)c1ccccc1C2=O	7.43%
CCCCn1nc2cc(C(=O)NCc3ccco3)ccc2c1OCC	-0.0403%
O=C(CSc1ncccn1)NCCc1ccccc1	-17.8%
CCCC[C@@H]1CN=C(N)N1CCc1cccc(F)c1	6.7%
COc1ccc(S(=O)(=O)N2CCN(C(C)C(=O)Nc3ccc(C(C)C)cc3)CC2)cc1 (centres unmarked)	-4.52%
CC(=O)c1ccc(OCc2cc(C(=O)N3CCCCCCC3)no2)cc1	-5.82%
Cc1c(C(=O)Nc2ccccc2)cn2c(nc3ccccc32)c1C#N	17.9%
COc1cccc(CNC(=O)C2CCN(S(=O)(=O)N3CCCCC3)CC2)c1	-4.64%
COc1ccccc1NC(=O)c1cc(-c2ccc(C)o2)nc2ccccc12	-2.69%

Structure (SMILES)	hERG current change (%, negative = inhibition) at 1uM
Cc1nn(C(=O)c2ccco2)c(C)c1CN1C(=O)c2ccccc2C1=O	3.16%
Nc1ccc(Br)cc1-c1nc2ccccc2[nH]c1=O	13.2%
c1ccc(CC2CCN(C(c3cccs3)c3nnnn3C3CCCC3)CC2)cc1 (centres unmarked)	12.5%
CN(C(=O)COC(=O)c1nc(Cl)ccc1Cl)C1CCS(=O)(=O)C1 (centres unmarked)	9.24%
Cc1ccc(NC(=O)CCCn2nc(C)c3c(C)n(-c4ccccc4)nc3c2=O)c(Cl)c1	17.6%
C[n+]1nc(Nc2ccccc2)sc1-c1ccc(O)cc1.[Cl-]	10.9%
O=C(COC(=O)c1cc(=O)[nH]c2ccccc12)Nc1cccc(S(=O)(=O)N2CCOCC2)c1	8.09%
Cc1nn(CC(=O)Nc2c(F)cc(F)cc2Br)c(=O)c2cccn12	21.6%
COc1ccccc1NC(=O)c1ccc(S(=O)(=O)N(C)C)cc1	9.66%
COc1ccc(C(=O)NC(=S)Nc2ccc(CN3CCOCC3)cc2)cc1OC	13.2%
CCOc1ccccc1NC(=O)c1cc(Cl)ccc1NC(=O)c1ccco1	10.3%
CCc1ccc(C2c3[nH]c4ccccc4c3CCN2C(=O)c2ccc(=O)n(C)n2)cc1 (centres unmarked)	10.6%
Cc1ccc(NC2Nc3cc(C)nn3S2)c(C)c1 (centres unmarked)	6.13%
COc1ccc(/C=C(/NC(=O)c2ccco2)C(=O)N2CCOCC2)cc1	7.7%
Cc1cccc(NC(=O)c2cc(-c3ccccn3)nc3ccccc23)c1C	11.8%
COc1cccc(C2SCC(=O)N2c2ccc(Cl)cc2)c1OC (centres unmarked)	-0.758%
COC(=O)c1nn(-c2ccccc2)ccc1=O	13.1%
CN1CCN(c2oc(-c3ccccc3)nc2S(=O)(=O)c2ccc(Br)cc2)CC1	2.79%
COC(=O)/C(=C\Nc1ccc(Cl)cc1Cl)NC(=O)c1ccc(Cl)cc1Cl	4.54%
Clc1ccc(CCNc2ncnc3nc[nH]c23)cc1	10.2%
COCCNC(=O)C(=O)N/N=C(\C)CC(=O)Nc1ccc(Cl)cc1Cl	3.08%
COc1ccc2nc(Nc3nc4cc5c(cc4s3)OCO5)sc2c1	7.55%
